Test results published in PubChem BioAssay AID1346428 (National Center for Advancing Translational Sciences (NCATS), 2018).
The campaign covered roughly 48,000 compounds. About 1,200 (2.5%) were called active. Another 2% or so got no clear call; they are omitted.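 How the source made its calls: active means activation of at least 60% and not above a set upper limit (about 1 call in 100 departs from these limits); inconclusive means activation of 40% to 60%, or above that upper limit; inactive means activation under 40%.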 This is one part of the list.

Biological target: Probable G-protein coupled receptor 32 (Homo sapiens) (UniProt O75388)
Experiment: qHTS for Agonists of Human Resolvin D1 Receptor DRV1; further: 0% is about no effect
Conditions: CHO-K1 GPR32 beta-arrestin PathHunter luminescence, 90 min; at 76.9 µM; stronger effect = higher value; zero percent set by DMSO-only wells
How it was run: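 GPR32 activation in stably transfected CHO-K1 cells, detected as beta-arrestin recruitment by enzyme-fragment complementation. Compound exposure: 90 min, 37 °C.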

Chain of UniProt O75388 (O75388 whole entry, looked up): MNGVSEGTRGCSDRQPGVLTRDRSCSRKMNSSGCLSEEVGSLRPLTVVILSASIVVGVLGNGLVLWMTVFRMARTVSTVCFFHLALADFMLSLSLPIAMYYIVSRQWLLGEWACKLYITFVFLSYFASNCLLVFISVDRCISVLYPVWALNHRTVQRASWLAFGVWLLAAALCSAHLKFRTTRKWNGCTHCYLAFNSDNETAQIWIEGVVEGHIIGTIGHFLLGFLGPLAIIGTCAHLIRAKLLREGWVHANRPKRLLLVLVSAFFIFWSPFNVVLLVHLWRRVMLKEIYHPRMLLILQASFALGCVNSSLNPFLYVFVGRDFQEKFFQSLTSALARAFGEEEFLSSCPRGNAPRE

activation, inactive:
CCn1cc2nc(SCc3cccc(C(F)(F)F)c3)n(Cc3ccc(OC)cc3)c(=O)c2n1 -17.4%
CCOCCn1c(N2CCCN(C)CC2)nc2ccccc21 -0.415%
Cc1ccc2oc(-c3cc(NC(=O)c4oc5ccccc5c4C)ccc3Cl)nc2c1 2.37%
Cc1ccc2oc(=O)n(Cc3ccccc3Cl)c2c1 -10.3%
O=S(=O)(c1cccc2c(Cl)cccc12)N1CCCNCC1 13.2%
CCCNC(=O)C1CCC(CNS(=O)(=O)c2ccc3c(c2)CC(C)N3C(C)=O)CC1 (stereo not given) -5.15%
CN(Cc1ccc(F)cc1)S(=O)(=O)c1nnc(NC(=O)c2ccccc2)s1 16.1%
CCc1ccc(OCC(=O)Nc2cc(-c3nc4cc(C)ccc4o3)ccc2C)cc1 13.3%
CCOc1ccc(Nc2ncnc3scc(-c4ccc(OC)cc4)c23)cc1 -7.38%
Cc1ccc(C(=O)NCc2ccccc2)cc1NC(=O)c1nsc2ccccc12 -18.7%
Cc1ccc(NC(=O)c2oc3ccccc3c2NC(=O)C23CC4CC(CC(C4)C2)C3)cc1 -3.36%
CCOC(=O)c1c(C)[nH]c(C)c1S(=O)(=O)N1CCC(C(=O)Nc2ccc(C)c(N(C)C)c2)CC1 19.9%
CCc1ccc(N2C(=O)CN(S(=O)(=O)CC)CC2(C)C(=O)NC2CCCCC2)cc1 (stereo not given) -7.53%
Cc1cc(-c2ccc(C)c(S(=O)(=O)NCc3cccs3)c2)on1 -11.7%
CC(C)(C)OC(=O)N1CCC(c2c(C(=O)N3CCN(Cc4ccccc4)CC3)cnn2-c2ccc(Cl)cc2)CC1 -15.9%
Cn1cc(C(=O)NCCc2ccccc2)c(=O)c2cc(S(=O)(=O)N3CCCCC3)ccc21 -2.17%
c1ccc2c(c1)ncc1nncn12 -0.389%
CC1CCC(NC(=O)Cn2ncc3c4ccccc4n(Cc4ccc(F)cc4)c3c2=O)CC1 (stereo not given) -21.4%
O=c1[nH]c2ccc(NCc3ccc(-c4ccc(F)cc4)o3)cc2[nH]1 -7.47%
COc1ccc(CNC(=O)c2nn(C)c3c2CS(=O)(=O)c2ccccc2-3)cc1 -2.85%
Cc1ccc(Nc2ncc(C(=O)Nc3ccc(F)cc3F)c3ccccc23)cc1Cl -28.6%
CC(=O)c1ccc(NC(=O)CSc2ccc3nnc(CCNS(=O)(=O)c4ccc(C)cc4)n3n2)cc1 -19.7%
CCC1CCCCN1S(=O)(=O)c1cc2c(cc1C)NC(=O)CO2 (stereo not given) -5.81%
Cc1ccc(CN(C(=O)COc2ccc([N+](=O)[O-])cc2)c2ccccn2)o1 4.69%
COc1ccc(CCNC(=O)CCS(=O)(=O)c2cc3c(cc2Cl)NC(=O)CO3)cc1OC -6.07%
CC1=C(C(=O)O)N2C(=O)[C@@H](NC(=O)[C@H](N)c3ccccc3)[C@H]2SC1 6.03%
O=C(COc1ccccc1)Nc1nnc(SCc2cc(=O)n3cc(Cl)ccc3n2)s1 -5.59%
COc1ccc(-c2noc(CSc3nnc(Cc4ccccc4)n3-c3cccc(C)c3)n2)cc1 1.75%
COc1ccc(/C=C/C(=O)Nc2ccc3nc4c(c(Nc5ccc(OC)c(OC)c5)c3c2)CCCC4)cc1 -3.06%
CCCc1nn2cc(-c3ccc(C)c(C)c3)nc2s1 -38.4%
CCOC(=O)Cc1c(C)nc2c(-c3ccc(Cl)cc3)c(C(F)(F)F)nn2c1C -6.64%
CCc1nnc(SCC(=O)Nc2cccc(C(F)(F)F)c2)c2cc3oc(C)cc3n12 -13.7%
CCC(C(=O)Nc1ccccc1OC)n1c(C(=O)OC)cc2sc(Cl)cc21 (stereo not given) -23.9%
Cc1ccc2onc(CNC(=O)NCc3ccccc3)c2c1 3.65%
Cc1oc(-c2ccccc2Cl)nc1CS(=O)(=O)CC(=O)NC(C)c1ccccc1 (stereo not given) 4.07%
CC(=O)N1CCc2cc(S(=O)(=O)NC(CC(C)C)C(=O)NCCc3cccc(C)c3)ccc21 (stereo not given) 8.42%
CCOCCCNC(=O)c1ccc2c(=O)n(CCc3ccc(OC)c(OC)c3)c(=O)[nH]c2c1 6.83%
CCOc1ccccc1CNC(=O)CSc1nnc(C)c2c(C)n(-c3ccccc3)nc12 1.89%
CCCc1c(OCCCOc2ccc(OCC(=O)O)cc2)ccc(C(C)=O)c1O 10.9%
COc1cc2c(cc1NC(=O)COc1ccc(Cl)cc1)oc1ccccc12 -9.34%
COc1ccc(NC(=O)Cn2c(=O)n(Cc3ccco3)c(=O)c3oc4ccccc4c32)cc1Cl -11.9%
CC(=O)Nc1ccc(C(=O)Nc2ccc3c(c2)N(C2CCCC2)C(=O)c2ccccc2S3)cc1 3.21%
COc1ccc(-n2ncc3c2ncn2nc(Cc4ccccc4)nc32)cc1 -0.643%
Cc1ccccc1CNCc1c(C(=O)O)c(C)n(Cc2ccc(F)cc2Cl)c1C 14.8%
Cc1ccc(-c2noc(-c3nnn(-c4ccc(Br)cc4F)c3C)n2)cc1 -11.6%
O=C(Nc1ccc(F)cc1)c1cc2cc3ccc(Cl)cc3nc2o1 21.1%
Clc1ccccc1CN1CCc2nc(N3CCN(c4ncccn4)CC3)ncc2C1 -6.4%
Cc1cccn2c(=O)c(-c3nnn[nH]3)cnc12 -6.32%
Cc1nnc(N2CCC(C(=O)NC(C)C)CC2)c2nn(-c3ccccc3)c(C)c12 -0.72%
Cc1nc(-c2cccc(S(=O)(=O)N3CCC(C(=O)NCc4ccccc4Cl)CC3)c2)no1 17.3%
COc1ccc(-n2ncc(C(=O)NCCN3CCOCC3)c2C2CCN(C(=O)OC(C)(C)C)CC2)cc1 -8.74%
COc1ccc(OC)c(CCNC(=O)Cn2nc(C)n3c(cc4sccc43)c2=O)c1 -3.87%
CCc1c(C)sc2c1CCN(C(=O)Nc1cc(C)ccc1C)C2c1ccc(OC)cc1 (stereo not given) 9.9%
Cc1ccc(C)c(NC(=O)c2nnn(Cc3ccc(F)cc3Cl)c2N)c1 25.2%
Cc1cccc(CSc2nnc(CCCCCN)o2)c1 2.83%
Cc1cc(C)cc(NC(=O)c2cc(S(=O)(=O)N3CCCC3)ccc2F)c1 -12.2%
Cn1nc(-c2ccccc2F)c2cc(C(=O)NCc3cccc(Cl)c3)sc21 -0.437%
O=c1oc2ccc3ccccc3c2cc1-c1nnc(Nc2cccc(C(F)(F)F)c2)s1 -2.54%
COc1cc(OC)c(NC(=O)N2CCc3cc(S(=O)(=O)N4CCC(C)CC4)ccc32)cc1Cl -8.57%
CCC1Oc2ccccc2N(CC(=O)NCCc2ccc(OC)c(OC)c2)C1=O (stereo not given) -17.3%
O=C(NCCc1ccccc1)c1cnc2sc(N3CCCCC3)nn2c1=O 15.2%
O=C(c1cc2c(s1)-c1ccccc1OC2)N1CCN(c2ccc(F)cc2)CC1 -17.1%
COc1ccc(CCNS(=O)(=O)c2ccc(N3CCCCS3(=O)=O)cc2)cc1 -8.41%
NC(N)=[N+]1CCc2ccccc2C1 6.3%
COc1ccc(C)cc1Nc1c2c(nc3nc(-c4cccs4)nn13)CCCC2 17.9%
O=C(NCc1cccc(Cl)c1)C(=O)Nc1ccc2nc3n(c(=O)c2c1)CCCCC3 -2.78%
CCCCN1CCCc2cc(CN(CCCN3CCOCC3)C(=O)Nc3ccc(OCC)cc3)ccc21 44.1%
CCN(CC)S(=O)(=O)c1ccc2c(c1)N(CC(=O)N1CCN(c3ccccc3F)CC1)C(=O)CO2 -15.9%
COc1cc(Nc2nc3ccccc3c3nnc(C)n23)cc(OC)c1 -8.44%
CCN(C(=O)c1cc2c(s1)-c1ccccc1OC2)c1cc(Cl)ccc1OC -32.2%
CCOC(=O)c1ccc(Nc2ncnc3c2cnn3-c2cccc(Cl)c2)cc1 -8.36%
Cc1ccc(NC(=O)N2CCc3cc(S(=O)(=O)N4CCC(C)CC4)ccc32)cc1C -19%
CC1Cc2cc(S(=O)(=O)NCc3ccccc3Cl)ccc2N1C(=O)C1CCC1 (stereo not given) 19.5%
O=S(=O)(NCCS(=O)(=O)N1CCN(c2ccccc2F)CC1)c1ccc(Cl)cc1 -11.1%
Cc1ccccc1NS(=O)(=O)c1nnc(NC(=O)c2ccccc2C)s1 0.578%
CCN(CC)c1ccc(C(=O)N2CCC(c3c[nH]c4ccccc34)(c3c[nH]c4ccccc34)CC2)cc1 7.48%
COc1ccc(N2CCN(C(=O)CCn3c(=O)c4cccn4c4cccnc43)CC2)cc1 0.671%
CC(NC(=O)Nc1cc(Cl)ccc1Cl)c1c(-n2cccc2)sc2c1CCCC2 (stereo not given) -4.84%
CCOC(=O)c1ccc(NC(=O)c2ncn(-c3ccccc3)n2)cc1 -2.76%
Cc1ccc(-c2nc(-c3cc4cccc(OCc5cccc(C)c5)c4oc3=O)no2)cc1 19.1%
O=C(NC1CCN(Cc2ccccc2)CC1)c1ccc(Cn2c(=O)c3ccccc3n(Cc3ccccc3)c2=O)cc1 10.2%
CCc1c(C)nc2nncn2c1Nc1ccc(C(C)C)cc1 0.995%
Cc1ccc(NC(=O)/C(C#N)=C/c2cc(C)n(-c3ccc(F)cc3)c2C)cc1C 0.148%
CCc1ccc(NC(=O)Cn2c3ncccc3c(=O)n2-c2ccc(C)c(C)c2)cc1 -12.9%
O=C(c1ccc2c(c1)N(Cc1ccccc1F)C(=O)c1ccccc1S2=O)N1CCN(c2ccccc2)CC1 (stereo not given) 12.1%
